Experimental data reported in article PMC6787559.
Results are given in words; binding and its absence hold for the method and conditions named. For some of these results: In cells and extracts the contact can be indirect. Some entries that bind do so weakly or less than the wild type. Sequences can lack the tags named with a protein.

The chains behind the UniProt entries cited, without tags or fusion partners. Where a name states a change or a piece, a line headed by the entry shows the natural chain unless it says otherwise.
UniProt Q96RY7: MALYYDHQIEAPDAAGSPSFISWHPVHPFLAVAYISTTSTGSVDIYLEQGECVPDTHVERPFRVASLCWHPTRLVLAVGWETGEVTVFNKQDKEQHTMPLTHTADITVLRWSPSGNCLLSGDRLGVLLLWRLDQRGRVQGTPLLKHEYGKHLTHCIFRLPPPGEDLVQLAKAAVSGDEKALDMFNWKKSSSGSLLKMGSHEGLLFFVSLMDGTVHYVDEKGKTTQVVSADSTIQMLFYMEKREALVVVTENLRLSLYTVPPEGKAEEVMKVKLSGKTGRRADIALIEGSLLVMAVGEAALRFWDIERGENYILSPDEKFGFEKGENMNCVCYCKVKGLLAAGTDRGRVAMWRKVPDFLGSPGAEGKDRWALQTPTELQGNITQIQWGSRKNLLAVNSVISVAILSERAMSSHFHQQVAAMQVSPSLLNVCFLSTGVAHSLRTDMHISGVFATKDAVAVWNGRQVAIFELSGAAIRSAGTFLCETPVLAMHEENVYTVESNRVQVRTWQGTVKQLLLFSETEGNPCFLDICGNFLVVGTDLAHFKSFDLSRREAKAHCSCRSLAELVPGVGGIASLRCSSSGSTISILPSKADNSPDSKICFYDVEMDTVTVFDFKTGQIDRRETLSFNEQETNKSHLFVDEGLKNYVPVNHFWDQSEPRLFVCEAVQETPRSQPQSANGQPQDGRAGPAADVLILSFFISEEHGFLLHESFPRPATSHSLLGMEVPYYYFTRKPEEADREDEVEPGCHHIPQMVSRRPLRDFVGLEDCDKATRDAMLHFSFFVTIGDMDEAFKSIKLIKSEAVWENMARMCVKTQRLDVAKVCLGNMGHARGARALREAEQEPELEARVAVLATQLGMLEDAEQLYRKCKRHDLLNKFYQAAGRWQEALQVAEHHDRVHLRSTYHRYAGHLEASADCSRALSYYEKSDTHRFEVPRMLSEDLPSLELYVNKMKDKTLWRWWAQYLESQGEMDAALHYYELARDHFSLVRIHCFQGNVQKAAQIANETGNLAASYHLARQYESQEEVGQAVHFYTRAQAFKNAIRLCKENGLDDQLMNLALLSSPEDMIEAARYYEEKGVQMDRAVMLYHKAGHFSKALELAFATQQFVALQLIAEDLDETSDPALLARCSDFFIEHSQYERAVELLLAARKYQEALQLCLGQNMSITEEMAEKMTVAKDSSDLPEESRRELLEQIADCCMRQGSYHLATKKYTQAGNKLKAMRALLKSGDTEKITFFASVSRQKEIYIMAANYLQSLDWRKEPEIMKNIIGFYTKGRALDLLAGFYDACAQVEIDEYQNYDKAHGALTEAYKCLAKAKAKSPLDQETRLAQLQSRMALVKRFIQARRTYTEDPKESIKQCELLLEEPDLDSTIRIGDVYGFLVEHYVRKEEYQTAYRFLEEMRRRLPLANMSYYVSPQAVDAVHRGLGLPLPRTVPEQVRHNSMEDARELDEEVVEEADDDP

T1: PalmMyr-CFP-SANS (human) (UniProt Q495M9)
T1 sequence: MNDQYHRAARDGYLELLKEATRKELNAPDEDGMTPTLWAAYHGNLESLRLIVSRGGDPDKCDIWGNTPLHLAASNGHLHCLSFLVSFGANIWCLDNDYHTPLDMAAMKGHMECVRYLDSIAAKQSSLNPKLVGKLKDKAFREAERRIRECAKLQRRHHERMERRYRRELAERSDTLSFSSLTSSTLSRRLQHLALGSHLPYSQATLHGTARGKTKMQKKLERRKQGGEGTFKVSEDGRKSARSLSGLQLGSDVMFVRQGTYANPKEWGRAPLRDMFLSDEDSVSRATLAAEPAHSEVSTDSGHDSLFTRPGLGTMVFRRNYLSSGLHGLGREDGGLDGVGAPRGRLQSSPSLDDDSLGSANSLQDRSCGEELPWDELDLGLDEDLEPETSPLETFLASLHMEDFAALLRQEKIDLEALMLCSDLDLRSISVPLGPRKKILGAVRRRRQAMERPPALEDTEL

T2: GFP-tagged SANS (human) (UniProt Q495M9)
T2 sequence: T1 sequence

T3: GFP-tagged IFT52 (UniProt Q9Y366)
T3 sequence: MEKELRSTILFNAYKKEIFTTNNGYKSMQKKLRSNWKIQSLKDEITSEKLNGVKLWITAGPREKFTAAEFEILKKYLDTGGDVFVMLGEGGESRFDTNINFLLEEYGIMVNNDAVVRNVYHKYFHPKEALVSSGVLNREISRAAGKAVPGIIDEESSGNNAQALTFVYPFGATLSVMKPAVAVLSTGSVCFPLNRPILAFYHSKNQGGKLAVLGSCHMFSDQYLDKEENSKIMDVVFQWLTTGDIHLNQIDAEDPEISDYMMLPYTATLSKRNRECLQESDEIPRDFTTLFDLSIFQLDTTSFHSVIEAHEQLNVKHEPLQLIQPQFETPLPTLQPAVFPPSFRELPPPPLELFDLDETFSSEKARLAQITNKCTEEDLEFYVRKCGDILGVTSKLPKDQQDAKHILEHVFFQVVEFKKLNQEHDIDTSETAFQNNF

T4: GFP-tagged IFT57 (UniProt Q9NWB7)
T4 sequence: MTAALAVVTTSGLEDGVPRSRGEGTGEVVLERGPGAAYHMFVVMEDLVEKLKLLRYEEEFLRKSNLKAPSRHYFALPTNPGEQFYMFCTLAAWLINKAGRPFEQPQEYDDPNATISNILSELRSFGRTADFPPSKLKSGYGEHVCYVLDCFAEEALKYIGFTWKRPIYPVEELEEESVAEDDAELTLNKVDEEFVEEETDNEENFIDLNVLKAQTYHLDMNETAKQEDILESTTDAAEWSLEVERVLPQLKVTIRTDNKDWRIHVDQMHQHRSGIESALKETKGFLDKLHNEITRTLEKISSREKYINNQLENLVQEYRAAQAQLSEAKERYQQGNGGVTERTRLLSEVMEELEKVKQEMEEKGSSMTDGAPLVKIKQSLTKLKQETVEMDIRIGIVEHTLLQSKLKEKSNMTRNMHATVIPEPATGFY

T5: full length IFT81 fused to the GAL4 DNA-binding domain (UniProt Q8WYA0)
T5 sequence: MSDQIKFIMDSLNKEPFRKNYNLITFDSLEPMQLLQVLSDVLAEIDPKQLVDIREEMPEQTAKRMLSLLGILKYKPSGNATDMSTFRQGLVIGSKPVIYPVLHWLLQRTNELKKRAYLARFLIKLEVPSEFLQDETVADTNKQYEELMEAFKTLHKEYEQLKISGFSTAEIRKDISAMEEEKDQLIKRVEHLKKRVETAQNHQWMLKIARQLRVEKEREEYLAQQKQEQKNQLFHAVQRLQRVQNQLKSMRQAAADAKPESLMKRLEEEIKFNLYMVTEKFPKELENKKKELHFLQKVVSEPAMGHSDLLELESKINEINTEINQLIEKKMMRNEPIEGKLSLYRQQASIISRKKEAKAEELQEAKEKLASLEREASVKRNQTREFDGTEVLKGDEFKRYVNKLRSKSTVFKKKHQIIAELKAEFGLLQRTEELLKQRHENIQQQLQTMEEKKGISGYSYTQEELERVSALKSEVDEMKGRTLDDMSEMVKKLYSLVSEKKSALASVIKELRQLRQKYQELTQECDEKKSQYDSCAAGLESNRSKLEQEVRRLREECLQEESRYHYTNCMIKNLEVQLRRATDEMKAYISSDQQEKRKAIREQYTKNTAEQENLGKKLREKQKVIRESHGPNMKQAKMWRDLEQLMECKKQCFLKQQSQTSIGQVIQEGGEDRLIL

B1: 3xFLAG-IFT52 (protein, UniProt Q9Y366 1-437)
chain: T3 sequence
B2: 3xFLAG-tagged SANS Nterm (aa 2-126) (domain or fragment, UniProt Q495M9 2-126)
chain: NDQYHRAARDGYLELLKEATRKELNAPDEDGMTPTLWAAYHGNLESLRLIVSRGGDPDKCDIWGNTPLHLAASNGHLHCLSFLVSFGANIWCLDNDYHTPLDMAAMKGHMECVRYLDSIAAKQSS
B3: 3xFLAG-tagged SANS CENT (aa 125-388) (domain or fragment, UniProt Q495M9 125-388)
chain: SSLNPKLVGKLKDKAFREAERRIRECAKLQRRHHERMERRYRRELAERSDTLSFSSLTSSTLSRRLQHLALGSHLPYSQATLHGTARGKTKMQKKLERRKQGGEGTFKVSEDGRKSARSLSGLQLGSDVMFVRQGTYANPKEWGRAPLRDMFLSDEDSVSRATLAAEPAHSEVSTDSGHDSLFTRPGLGTMVFRRNYLSSGLHGLGREDGGLDGVGAPRGRLQSSPSLDDDSLGSANSLQDRSCGEELPWDELDLGLDEDLEPE
B4: SANS full length fused to the GAL4 activation domain (protein, UniProt Q495M9 1-461)
chain: T1 sequence
B5: 3xFLAG-tagged SANS full length (protein, UniProt Q495M9 1-461)
chain: T1 sequence

Key:
[1] = biological target: T1, PalmMyr-CFP-SANS (human); experiment: membrane targeting assay; HEK293T cells co-transfected with PalmMyr-CFP-SANS or PalmMyr-CFP and 3xFLAG-IFTs; anti-FLAG immunofluorescence 24 h after transfection; recruitment to the plasma membrane
[2] = biological target: T2, GFP-tagged SANS (human); experiment: co-IP; GFP-Trap nanobody immunoprecipitation; lysates of co-transfected HEK293T cells; GFP-tagged protein immobilised on GFP-Trap agarose beads, 2 h at 4 C; 10 mM Tris-Cl pH 7.5, 150 mM NaCl, 0.5 mM EDTA; FLAG-tagged protein detected by Western blot
[3] = biological target: T3, GFP-tagged IFT52; experiment: as above
[4] = biological target: T4, GFP-tagged IFT57; experiment: as above
[5] = biological target: IFT140 (IFT-A complex) in the 1:1 Y2H (UniProt Q96RY7); experiment: two-hybrid; 1:1 Y2H of SANS and IFT140, data not shown; initial, not validated
[6] = biological target: T5, full length IFT81 fused to the GAL4 DNA-binding domain; experiment: two-hybrid; 1:1 Y2H; full length IFTs fused to GAL4 DNA-binding domain as bait, full length SANS fused to GAL4 activation domain as prey; strains PJ694alpha and PJ694A mated; selection on -LWHA media, X-beta-gal filter lift assay; three assays for each IFT

Binder	binding [2]	binding [3]	binding [4]	further results
B1	binds	–	–	binding [1]: binds
B2	–	binds	binds	–
B3	–	binds weakly	binds weakly	–
B4	–	–	–	binding [5]: binds; binding [6]: no binding
B5	binds	binds	–	–
